# Reference: the supplement of paper PMC8728848
# The list shows a part of the results.
# B1: BDCA-2 (Homo sapiens), Q8WTT0 (protein)
# chain: MVPEEEPQDREKGLWWFQLKVWSMAVVSILLLSVCFTVSSVVPHNFMYSKTVKRLSKLREYQQYHPSLTCVMEGKDIEDWSCCPTPWTSFQSSCYFISTGMQSWTKSQKNCSVMGADLVVINTREEQDFIIQNLKRNSSYFLGLSDPGGRRHWQWVDQTPYNENVTFWHSGEPNNLDERCAIINFRSSEEWGWNDIHCHVPQKSICKMKKIYI
# Assays:
# Test in all cases: glycan array binding signal (z-score within array); higher = stronger binding
# Conditions in all cases: glycan notation: IUPAC condensed, linker removed
# [1] = target: Fuc(a1-2)Gal
# Summary of the method: (§1)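 Glycan array data came from 3228 arrays in the Consortium for Functional Glycomics database, and only arrays with an available protein sequence were kept. Glycan names were put into IUPAC-condensed notation, and columns mapping to the same glycan were averaged. The binding signal is a within-array Z-score, averaged across arrays of one protein sequence run at different concentrations or buffers and across linkers. A negative Z-score can be read as non-binding.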
# [2] = target: Fuc(a1-2)Gal(b1-3)GalNAc
# Summary of the method: as §1
# [3] = target: Fuc(a1-2)Gal(b1-3)GalNAc(a1-3)[Fuc(a1-2)]Gal(b1-4)Glc
# Summary of the method: as §1
# [4] = target: Fuc(a1-2)Gal(b1-3)GalNAc(a1-3)[Fuc(a1-2)]Gal(b1-4)GlcNAc
# Summary of the method: as §1
# [5] = target: Fuc(a1-2)Gal(b1-3)GalNAc(b1-3)Gal
# Summary of the method: as §1
# [6] = target: Fuc(a1-2)Gal(b1-3)GalNAc(b1-3)Gal(a1-4)Gal(b1-4)Glc
# Summary of the method: as §1
# [7] = target: Fuc(a1-2)Gal(b1-3)GalNAc(b1-4)[Neu5Ac(a2-3)]Gal(b1-4)Glc
# Summary of the method: as §1
# [8] = target: Fuc(a1-2)Gal(b1-3)GlcNAc
# Summary of the method: as §1
# [9] = target: Fuc(a1-2)Gal(b1-3)GlcNAc(b1-2)Man(a1-3)[Fuc(a1-2)Gal(b1-3)GlcNAc(b1-2)Man(a1-6)]Man(b1-4)GlcNAc(b1-4)GlcNAc
# Summary of the method: as §1
# [10] = target: Fuc(a1-2)Gal(b1-3)GlcNAc(b1-2)Man(a1-3)[Fuc(a1-2)Gal(b1-3)GlcNAc(b1-2)Man(a1-6)]Man(b1-4)GlcNAc(b1-4)[Fuc(a1-6)]GlcNAc
# Summary of the method: as §1
# [11] = target: Fuc(a1-2)Gal(b1-3)GlcNAc(b1-3)Gal(b1-4)Glc
# Summary of the method: as §1
# [12] = target: Fuc(a1-2)Gal(b1-3)GlcNAc(b1-3)GalNAc
# Summary of the method: as §1
# [13] = target: Fuc(a1-2)Gal(b1-3)GlcNAc(b1-3)[Fuc(a1-2)Gal(b1-3)GlcNAc(b1-6)]GalNAc
# Summary of the method: as §1
# [14] = target: Fuc(a1-2)Gal(b1-3)GlcNAc(b1-3)[Gal(b1-4)GlcNAc(b1-6)]Gal(b1-4)Glc
# Summary of the method: as §1
# [15] = target: Fuc(a1-2)Gal(b1-3)GlcNAc(b1-3)[Neu5Ac(a2-6)Gal(b1-4)GlcNAc(b1-6)]Gal(b1-4)Glc
# Summary of the method: as §1
# [16] = target: Fuc(a1-2)Gal(b1-3)GlcNAc6S
# Summary of the method: as §1
# [17] = target: Fuc(a1-2)Gal(b1-3)[Fuc(a1-4)]GlcNAc
# Summary of the method: as §1
# [18] = target: Fuc(a1-2)Gal(b1-3)[Fuc(a1-4)]GlcNAc(b1-2)Man(a1-3)[Fuc(a1-2)Gal(b1-3)[Fuc(a1-4)]GlcNAc(b1-2)Man(a1-3)]Man(b1-4)GlcNAc(b1-4)GlcNAc
# Summary of the method: as §1
# [19] = target: Fuc(a1-2)Gal(b1-3)[Fuc(a1-4)]GlcNAc(b1-2)Man(a1-3)[Fuc(a1-2)Gal(b1-3)[Fuc(a1-4)]GlcNAc(b1-2)Man(a1-6)]Man(b1-4)GlcNAc(b1-4)[Fuc(a1-6)]GlcNAc(b1-4)[Fuc(a1-6)]GlcNAc
# Summary of the method: as §1
# [20] = target: Fuc(a1-2)Gal(b1-3)[Fuc(a1-4)]GlcNAc(b1-3)[Fuc(a1-3)[Gal(b1-4)]GlcNAc(b1-6)]Gal(b1-4)Glc
# Summary of the method: as §1
# [21] = target: Fuc(a1-2)Gal(b1-3)[Fuc(a1-4)]GlcNAc(b1-3)[Gal(b1-4)GlcNAc(b1-6)]Gal(b1-4)Glc
# Summary of the method: as §1
# [22] = target: Fuc(a1-2)Gal(b1-4)Fuc(a1-3)]GlcNAc(b1-2)Man(a1-3)[Fuc(a1-2)Gal(b1-4)[Fuc(a1-3)]GlcNAc(b1-2)Man(a1-6)]Man(b1-4)GlcNAc(b1-4)GlcNAc
# Summary of the method: as §1
# [23] = target: Fuc(a1-2)Gal(b1-4)Glc
# Summary of the method: as §1
# [24] = target: Fuc(a1-2)Gal(b1-4)Glc6S
# Summary of the method: as §1
# [25] = target: Fuc(a1-2)Gal(b1-4)GlcNAc
# Summary of the method: as §1
# [26] = target: Fuc(a1-2)Gal(b1-4)GlcNAc(b1-2)Man
# Summary of the method: as §1
# [27] = target: Fuc(a1-2)Gal(b1-4)GlcNAc(b1-2)Man(a1-3)[Fuc(a1-2)Gal(b1-4)GlcNAc(b1-2)Man(a1-6)]Man(b1-4)GlcNAc(b1-4)GlcNAc
# Summary of the method: as §1
# [28] = target: Fuc(a1-2)Gal(b1-4)GlcNAc(b1-2)Man(a1-3)[Fuc(a1-2)Gal(b1-4)GlcNAc(b1-2)Man(a1-6)]Man(b1-4)GlcNAc(b1-4)[Fuc(a1-6)]GlcNAc
# Summary of the method: as §1
# [29] = target: Fuc(a1-2)Gal(b1-4)GlcNAc(b1-2)[Fuc(a1-2)Gal(b1-4)GlcNAc(b1-4)]Man(a1-3)[Fuc(a1-2)Gal(b1-4)GlcNAc(b1-2)Man(a1-6)]Man(b1-4)GlcNAc(b1-4)GlcNAc
# Summary of the method: as §1
# [30] = target: Fuc(a1-2)Gal(b1-4)GlcNAc(b1-3)Gal(b1-4)GlcNAc
# Summary of the method: as §1
binder,measurement,setting,value
B1,glycan array binding signal (z-score),[1],-0.149
same,glycan array binding signal (z-score),[2],-0.196
same,glycan array binding signal (z-score),[3],-0.127
same,glycan array binding signal (z-score),[4],-0.169
same,glycan array binding signal (z-score),[5],-0.075
same,glycan array binding signal (z-score),[6],-0.125
same,glycan array binding signal (z-score),[7],-0.18
same,glycan array binding signal (z-score),[8],-0.15
same,glycan array binding signal (z-score),[9],-0.092
same,glycan array binding signal (z-score),[10],-0.094
same,glycan array binding signal (z-score),[11],0.216
same,glycan array binding signal (z-score),[12],-0.135
same,glycan array binding signal (z-score),[13],-0.177
same,glycan array binding signal (z-score),[14],-0.17
same,glycan array binding signal (z-score),[15],-0.143
same,glycan array binding signal (z-score),[16],-0.191
same,glycan array binding signal (z-score),[17],-0.218
same,glycan array binding signal (z-score),[18],-0.069
same,glycan array binding signal (z-score),[19],-0.124
same,glycan array binding signal (z-score),[20],-0.178
same,glycan array binding signal (z-score),[21],-0.156
same,glycan array binding signal (z-score),[22],-0.106
same,glycan array binding signal (z-score),[23],0.011
same,glycan array binding signal (z-score),[24],-0.178
same,glycan array binding signal (z-score),[25],-0.174
same,glycan array binding signal (z-score),[26],-0.183
same,glycan array binding signal (z-score),[27],-0.085
same,glycan array binding signal (z-score),[28],-0.159
same,glycan array binding signal (z-score),[29],-0.163
same,glycan array binding signal (z-score),[30],-0.038
